Among all 150,000 compounds or so, about 540 (0.36%) showed an effect of 50% or more. The list shows a part of the results.

The text below walks through data of ChEMBL document CHEMBL4888484, “Replenishing the malaria drug discovery pipeline: Screening and hit evaluation of the MMV Hit Generation Library 1 (HGL1) against asexual blood stage Plasmodium falciparum ,using a nano luciferase reporter read-out” (2022).

The test system of the experiment is Plasmodium falciparum. Kind of experiment: Primary screen in NF54 nanoGlo assay, in single point, at 2uM, 72h; a lower Z score goes with more inhibition. The conditions noted are these: timepoint 72 hour. The class given is functional, Erythrocyte.
As to `Cc1csc2c(N3CCN4CCCC[C@H]4C3)ncnc12`, the % Inhibition (in general, the relative decrease from the control value, in per cent) is given as -16% and the Z score worked out at 2.48.
Take `COc1ccccc1[C@H]1CN(C(=O)CCn2cncn2)[C@@H]2C3CCN(CC3)[C@H]12`: the “% Inhibition” value is recorded as -3% and the Z score is recorded as 0.64.
As for `COc1ccc(NC(=O)CN2CC=C(c3cnn(C)c3)CC2)cc1Cl`, the “% Inhibition” value is listed as -9% and the Z score is 1.67.
Taken in the same sequence, the figures for `O=C(Nc1ccc2n(c1=O)C[C@H]1C[C@@H]2CN(CC2CCCCC2)C1)C1CCCCC1` were 4% and -0.49.
The corresponding values for `C[C@@H](C(=O)N(C)C)N1CCC2(CCCCCC2)C1` are -15% and 2.66.
The corresponding values for `COCCn1c(C(=O)NCc2nnc3ccccn23)cc2cc(Cl)ccc21` are -17% and 1.54.
As for `C=CCn1cc(CNCCc2c[nH]c3ccccc23)c(C)n1`, the “% Inhibition” value is on record as -10% and the Z score is 1.34.
The corresponding values for `CC(C)CCOc1ccccc1CCN` are -2% and 0.25.
The corresponding values for `Cn1cc(C(=O)Nc2ccc3c(c2)OCO3)c2cccnc21` are 3% and -0.31.
As to `O=C(COc1ccccc1Cl)N1CCN(CC2CC2)[C@@H]2CS(=O)(=O)C[C@@H]21`, the “% Inhibition” value was -3% and the Z score worked out at 0.41.
Take `N#Cc1ccc(NC(=O)N2CC(=O)NC3CCCCC32)cc1Cl` (stereo unspecified): the “% Inhibition” value is -12% and the Z score turned out to be 1.37.
On to `CCOC(=O)N1C[C@@H](c2cc(F)cc(F)c2)[C@@H]2[C@H]1C1CCN2CC1`, for which the “% Inhibition” value was -1% and the Z score turned out to be 0.21.
For the compound `O=C(c1cccc2ccccc12)[C@H]1CCCN(CCc2cn[nH]c2)C1`, the “% Inhibition” value amounted to 19% and the Z score is -2.18.
`Cc1ccc(C(=O)N2CCC(c3n[nH]c(=O)o3)CC2)c2c1CCC2`: the “% Inhibition” value is 9% and the Z score is recorded as -1.71.
Taken in the same sequence, the figures for `Cc1ncccc1CC(=O)N1CCN(CC(F)(F)F)C[C@H](C)C1` were 1% and -0.16.
The corresponding values for `CN(C)CCc1ccc(NCC(C)(C)CCC#N)cc1` are 5% and -0.49.
Turning to `O=S(=O)(c1ccc(Br)cc1)N1CCN2CCC1CC2`, the “% Inhibition” value is -7% and the Z score is 1.4.
The corresponding values for `Cc1ccc(CCNCC(F)(F)F)cc1` are -6% and 0.64.
Taken in the same sequence, the figures for `Cc1ccc(C(=O)N2c3ccc(C)cc3[C@@H]3CN(C)CC[C@@H]32)cc1` were 1% and -0.13.
Take `O=C(c1ccc(C(F)(F)F)cc1)[C@H]1CCCN(Cc2ccoc2)C1`: the “% Inhibition” value is -3% and the Z score is recorded as 0.51.
The corresponding values for `Cc1cc(Br)oc1C(=O)N1CCO[C@H]2CNC[C@H]21` are -13% and 1.81.
In the case of `O=C(c1ccccc1)c1cc(Cl)ccc1NC(=O)C1CCN(C(=O)c2ccco2)CC1`, the “% Inhibition” value turned out to be 1% and the Z score was -0.14.
Take `CN1C[C@@H]2CCCN(S(=O)(=O)c3ccco3)[C@@H]2C1`: the “% Inhibition” value was 8% and the Z score was -1.07.
The corresponding values for `Cc1ccc([C@H]2CN(C(=O)CN3CCOC3=O)[C@@H]3C4CCN(CC4)[C@H]23)cc1` are 4% and -0.74.
On to `CCCc1nn(C[C@H](O)c2cccc(Cl)c2)c(=O)o1`, for which the “% Inhibition” value was -3% and the Z score worked out at 0.29.
`CN1CCCc2cc(C(=O)N3CCC4(CC3)OCCO4)sc21`: the “% Inhibition” value is -10% and the Z score came out at 1.84.
Taken in the same sequence, the figures for `CC[C@@H](Cc1ccco1)NCc1ncc[nH]1` were 4% and -0.44.
For `N#Cc1ccc(N2CCn3c(nnc3C(F)(F)F)C2)cc1Cl`, the “% Inhibition” value is -6% and the Z score is 0.48.
For the compound `CN(Cc1cccnc1)C[C@@H]1CC=CCC1`, the “% Inhibition” value was 0% and the Z score turned out to be 0.
The corresponding values for `COc1ccc(CCN2C(=O)NC(=O)C3(Cc4c(Cl)cccc4N4CCCC43)C2=O)cc1OC` (stereo unspecified) are -11% and 1.39.
Taken in the same sequence, the figures for `COc1ccccc1Cn1cc(C(=O)NCCC(C)C)c(=O)c(C(=O)N(C)CCc2ccccn2)c1` were 0% and -0.06.
For the compound `Cc1ccc2cc(CN3CCN4CCC[C@H]4C3)c(=O)[nH]c2c1`, the “% Inhibition” value is -1% and the Z score is 0.25.
The corresponding values for `COc1ccc(OC)c(-c2c(C#N)c(N)nc3c2[C@@H]2CC[C@H](C3)N2)c1` are 7% and -0.84.
For `CCCN1C[C@@H]2CC[C@H]1CN(C(=O)Cc1cccc(OC)c1OC)C2`, the “% Inhibition” value is reported as -12% and the Z score is recorded as 2.11.
Taken in the same sequence, the figures for `CN1CC2CCC(C1)N2c1ccc(S(C)(=O)=O)cn1` were -7% and 1.03.
With `CC1(C)C[C@H](O)c2cc(NCC(=O)N3CCC4(CC3)OCCO4)ccc21`, the “% Inhibition” value is reported as -9% and the Z score is given as 1.05.
The corresponding values for `C[C@@H](Cc1ccccc1Br)NC(=O)NCC1(CO)CC1` are -4% and 0.39.
The corresponding values for `CC(N)C(O)c1ccc(Br)cc1` (stereo unspecified) are -3% and 0.37.
The corresponding values for `Cc1ccc(C[C@H](C)N(C)CCCC(=O)O)cc1` are 7% and -1.27.
With `O=c1ccc(-c2ccc(Cl)cc2)c2n1C[C@H]1C[C@@H]2CN(S(=O)(=O)c2ccccc2)C1`, the “% Inhibition” value is on record as -5% and the Z score was 0.87.
`O=C(Cc1cccc2ccccc12)N1CC[C@H](N2CCc3ccccc3C2)C1`: the “% Inhibition” value is on record as -8% and the Z score came to 1.57.
For the compound `Cc1ccccc1OCC(=O)N1CCCN([C@H]2CCN(Cc3ccc(F)cc3)C2=O)CC1`, the “% Inhibition” value is reported as 11% and the Z score was -1.47.
Turning to `Cc1nc(O)cc(CN(C)CCc2ccccc2)n1`, the “% Inhibition” value is on record as -7% and the Z score is recorded as 1.
Taken in the same sequence, the figures for `CC(=O)C(=O)N1C[C@H](c2ccccc2)[C@@H]2[C@H]1C1CCN2CC1` were 3% and -0.4.
The corresponding values for `Cn1cc(C(=O)N2CC[C@](C)(O)[C@@H](O)C2)c2ccccc21` are 1% and -0.2.
In the case of `CC[C@@H](Cn1ccnc1)NCc1ccc(OC)nc1`, the “% Inhibition” value is reported as -3% and the Z score is reported as 0.64.
Taken in the same sequence, the figures for `CC(C)C(O)CCNC1CCN(CC(F)(F)F)C1` (stereo unspecified) were -7% and 0.94.
The corresponding values for `C[C@H](NCCc1c[nH]c2ccccc12)c1c[nH]c(=O)n(C)c1=O` are -8% and 1.31.
Taken in the same sequence, the figures for `CC[C@H](C)Oc1cccc2c1cc(C(=O)N1CCC3(CC1)OCCO3)n2Cc1ccccc1` were -2% and 0.46.
As to `O=C(c1cn(Cc2c(F)cccc2Cl)c2ccccc12)C1CCCCC1`, the “% Inhibition” value is recorded as -11% and the Z score is listed as 1.34.
The corresponding values for `Cc1cnn(C[C@H](C)NCc2cn3ccccc3n2)c1` are -12% and 1.32.
As to `N#Cc1ccc(NC(CO)CO)cc1Cl`, the “% Inhibition” value is 13% and the Z score is -1.36.
For the compound `COc1cccc2c1OC[C@@]1(C(=O)O)CN(C(=O)c3cc(C)ccc3C)C[C@@H]21`, the “% Inhibition” value amounted to 2% and the Z score is on record as -0.25.
In the case of `COc1cc2c3c(c1O)-c1c(ccc(OC)c1OC)C[C@@H]3N(C)CC2` [CORYDINE], the “% Inhibition” value is given as -4% and the Z score turned out to be 0.52.
On to `CCC(=O)N1CCc2cc(Br)c(S(=O)(=O)CCC(=O)N3CCC4(CC3)OCCO4)cc21`, for which the “% Inhibition” value came to 7% and the Z score is on record as -0.69.
Taken in the same sequence, the figures for `Oc1ccc2c(c1)CCC(NC1CCC1C1CCC1)C2` (stereo unspecified) were -4% and 0.78.
Taken in the same sequence, the figures for `C=CCOc1ccccc1-c1c(C#N)c(N)nc2c1N1CCC2CC1` were -3% and 0.63.
Taken in the same sequence, the figures for `CC#CCCN[C@H]1CC(C)(C)OC1(C)C` were -1% and 0.15.
With `c1cnc(N2C[C@H]3CC[C@@H](C2)N(Cc2nnc(C4CC4)o2)C3)nc1`, the “% Inhibition” value is reported as 6% and the Z score is given as -1.06.
The corresponding values for `CCCN1C(=O)[C@@H]2CCC(=O)N2c2ccc(C(=O)N3CCC4(CC3)OCCO4)cc21` are 10% and -1.1.
As for `O=c1oc2ccccc2n1S(=O)(=O)c1ccccc1`, the “% Inhibition” value is given as -16% and the Z score worked out at 1.9.
The corresponding values for `CCCn1nnnc1NC(=O)N[C@H]1CN2CCC1CC2` are -2% and 0.22.
Taken in the same sequence, the figures for `CCn1c(=O)c(N2CCC(C(=O)N3CCC4(CC3)OCCO4)CC2)nc2ccccc21` were -2% and 0.39.
The corresponding values for `O=C(N[C@@H](Cc1ccccc1)c1ccccc1)c1nn(Cc2ccccc2)c2nccc(-c3cccs3)c12` are -10% and 1.06.
With `CCc1cccc(NC(=O)N2[C@H]3CC[C@@H]2c2cncnc2C3)c1`, the “% Inhibition” value is reported as -6% and the Z score turned out to be 1.16.
The corresponding values for `Cc1ccccc1CNC(=O)[C@H]1CCCN(S(=O)(=O)c2ccc3[nH]c(=O)oc3c2)C1` are -17% and 1.71.
The corresponding values for `O=C(Cc1cccc2ccccc12)N1CCN(Cc2ccccc2)CC1` are -10% and 1.22.
Taken in the same sequence, the figures for `Cc1ccc(OS(=O)(=O)c2cc3oc(=O)[nH]c3cc2Cl)cc1` were -4% and 0.46.
Regarding `NC(=O)[C@]12CCC[C@H]1CN(Cc1ccc(OCC(F)(F)F)nn1)C2`, the “% Inhibition” value stood at 3% and the Z score is -0.58.
Taken in the same sequence, the figures for `Cc1cnccc1N1CCC[C@H]1c1cccnc1` were -4% and 0.66.
The corresponding values for `O=C1NC(=O)C2(Cc3ccccc3N3CCCC32)C(=O)N1c1ccccc1` (stereo unspecified) are 34% and -3.9.
Regarding `CN(C)[C@@H](CN)c1ccc(C(F)(F)F)cc1`, the “% Inhibition” value was -3% and the Z score is listed as 0.42.
As for `CCC[C@H](NC(=O)c1cnn(C(C)C)c1C)C(=O)N1CCc2sccc2C1`, the “% Inhibition” value is given as -3% and the Z score was determined as 0.47.
`CC(Cn1cccn1)NC1CCOC1=O` (stereo unspecified): the “% Inhibition” value is -5% and the Z score was 0.83.
As for `O=C(c1ccc[nH]1)N1C[C@@H]2CC[C@H]1CN(Cc1ccncc1)C2`, the “% Inhibition” value was determined as 0% and the Z score was -0.04.
With `O=C(c1cc(-c2ccccc2)c(N2CCCCCC2)s1)N1CCC2(CC1)OCCO2`, the “% Inhibition” value is on record as -17% and the Z score turned out to be 1.98.
As for `O=C(Cc1ccccc1)N1CC2(C1)CN(C(=O)c1ccccc1)C[C@@H]1C[C@@H](O)CN12`, the “% Inhibition” value was -8% and the Z score is 1.21.
Taken in the same sequence, the figures for `Cc1nnc(CNC(C)C(C)c2ccccc2C(F)(F)F)o1` (stereo unspecified) were -10% and 1.18.
Taken in the same sequence, the figures for `O=C(c1cn2ccccc2n1)N1C[C@H](c2ccccc2)[C@@H]2[C@H]1C1CCN2CC1` were 3% and -0.53.
`CC(C)n1c(=O)c(-c2ccc(C(=O)N3CCC4(CC3)OCCO4)cc2)nc2cccnc21`: the “% Inhibition” value is reported as 0% and the Z score came to 0.05.
The corresponding values for `O=C(c1ccncc1F)N1C2CCC1c1ccccc12` are -17% and 2.12.
The corresponding values for `O=c1oc2cc(Cl)ccc2n1C(c1ccccc1)(c1ccccc1)c1ccccc1` are 23% and -2.51.
As to `COCCN1C[C@@H]2CC[C@H]1CN(C(=O)c1cc(C(C)C)on1)C2`, the “% Inhibition” value came out at 4% and the Z score was -0.35.
